The other results are listed elsewhere or left out. The full chains were built here from the parent and the listed change. Values near 0.05 are background.
B1: TEV protease; numbered along this chain (parent)
chain: MGESLFKGPRDYNPISSSICHLTNESDGHTTSLYGIGFGPFIITNKHLFRRNNGTLVVQSLHGVFKVKDTTTLQQHLVDGRDMIIIRMPKDFPPFPQKLKFREPQREERICLVTTNFQTKSMSSMVSDTSCTFPSGDGIFWKHWIQTKDGQCGSPLVSTRDGFIVGIHSASNFTNTNNYFTSVPKNFMELLTNQEAQQWVSGWRLNADSVLWGGHKVFMVKPEEPFQPVKEATQL

Variants of: B1
Assay: raw area under fraction-flipped curve 0-4 h after induction (AUC4h, not background-subtracted), DNA-recorder readout of cleavage of the substrate (dimensionless); higher = more cleavage of the substrate by the protease variant
Settings: temperature: 34 °C; time window: 0-4 h after rhamnose induction
Protocol: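 In vivo DNA recorder in E. coli TOP10(DE3) ΔrhaA at 34 °C. Each TEVp single-site mutant (parent TEVp 0) is paired with a single-site variant of the 7-mer TEVs (canonical ENLYFQ|S). The substrate sits between flexible linkers in a Bxb1-sfGFP-TEVs-SsrA fusion, so cleavage stabilises Bxb1 and speeds flipping of a recombination array, read by NGS. The value is the raw area under the fraction-flipped curve over 0-4 h after rhamnose induction (AUC4h), with ≥20 reads per time point. It is not background-subtracted; inactive controls average about 0.047.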
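Note: Bxb1 expression induced with 0.2% (w/v) L-rhamnose at OD600 near 0.5, cultures sampled hourly, flipped fraction per protease–substrate barcode pair counted by paired-end Illumina sequencing.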

Row | Variant | area with substrate ENLYCQS | area with substrate ENLYMQS | area with substrate ENLYNQS | area with substrate ENLYPQS | area with substrate ENLYRQS | area with substrate ENLYVQS | area with substrate ENLYDQS | area with substrate ENLYEQS | area with substrate ENLYGQS | area with substrate ENLYHQS | area with substrate ENLYIQS | area with substrate ENLYKQS | area with substrate ENLYLQS | area with substrate ENLYTQS | area with substrate ENLYQQS | area with substrate ENLYWQS | area with substrate ENLYSQS | area with substrate ENLYYQS
1 | MGESLFKGPRDYNPISSSICHLTNESDGHTTSLYGIGFGPFIITNKHLFRRNNGTLVVQSLHGVFKVKDTTTLQQHLVCGRDMIIIRMPKDFPPFPQKLKFREPQREERICLVTTNFQTKSMSSMVSDTSCTFPSGDGIFWKHWIQTKDGQCGSPLVSTRDGFIVGIHSASNFTNTNNYFTSVPKNFMELLTNQEAQQWVSGWRLNADSVLWGGHKVFMVKPEEPFQPVKEATQL [D79C] | 0.114 | 0.0908 | 0.0713 | 0.0684 | 0.0631 | 0.0851 | – | – | – | – | – | – | – | – | – | – | – | –
2 | MGESLFKGPRDYNPISSSICHLTNESDGHTTSLYGIGFGPFIITNKHLFRRNKGTLVVQSLHGVFKVKDTTTLQQHLVDGRDMIIIRMPKDFPPFPQKLKFREPQREERICLVTTNFQTKSMSSMVSDTSCTFPSGDGIFWKHWIQTKDGQCGSPLVSTRDGFIVGIHSASNFTNTNNYFTSVPKNFMELLTNQEAQQWVSGWRLNADSVLWGGHKVFMVKPEEPFQPVKEATQL [N53K] | 0.0755 | – | 0.0577 | 0.0625 | – | 0.0715 | 0.0601 | 0.0641 | 0.0629 | 0.058 | 0.0049 | 0.0607 | 0.0747 | 0.0726 | – | – | – | –
3 | MGESLFKGPRDYNPISSSICHLTNESDGHTTSLYGIGFGPFIITNKHLFRRNNGTLVVQSLHGVFKVKDTTTLQQHLVDGRDMIIIRMPKDFPPFPQKLKFREPQREERICLVTTNFQTKSMSSMVSDTSCTFPSGDGIFWKHWIQTKDGQCGSPLVKTRDGFIVGIHSASNFTNTNNYFTSVPKNFMELLTNQEAQQWVSGWRLNADSVLWGGHKVFMVKPEEPFQPVKEATQL [S158K] | 0.0527 | 0.0252 | – | – | 0.044 | – | – | 0.0527 | 0.0571 | 0.0533 | – | 0.0634 | – | 0.0495 | 0.0546 | – | – | –
4 | MGESLFKGPRDYNPISSSICHLTNESDGHTTSLYGIGFGPFIITNKHLFRRNNGTLVVQSLHGVFKVKDTTTMQQHLVDGRDMIIIRMPKDFPPFPQKLKFREPQREERICLVTTNFQTKSMSSMVSDTSCTFPSGDGIFWKHWIQTKDGQCGSPLVSTRDGFIVGIHSASNFTNTNNYFTSVPKNFMELLTNQEAQQWVSGWRLNADSVLWGGHKVFMVKPEEPFQPVKEATQL [L73M] | 0.0502 | – | 0.0723 | – | 0.0597 | 0.114 | – | 0.0649 | 0.108 | 0.0673 | 0.0905 | 0.0587 | – | – | 0.0594 | 0.0786 | – | –
5 | MGESLFKGPRDYNPISSSICHLTNESDGHTTSLYGIGFGPFIITNKHLFRRNNGTLVVQSLHGVFKVKDTTTLQQHLVDGRDMIIIRMPKDFPPFPQKLKFREPQREERICLVTTNFQTKSMSSMVSDTSCTFPSGDGIFWKHWIQTKDSQCGSPLVSTRDGFIVGIHSASNFTNTNNYFTSVPKNFMELLTNQEAQQWVSGWRLNADSVLWGGHKVFMVKPEEPFQPVKEATQL [G150S] | 0.0621 | 0.063 | 0.0655 | 0.0606 | 0.0693 | – | 0.0571 | 0.0575 | 0.0579 | – | – | 0.0466 | 0.0729 | 0.052 | – | 0.0453 | 0.062 | –
6 | MGESLFKGPRDYNPISSSICHLTNESDGHTTSLYGIGFGPFIITNKHLFRRNNGTLVVCSLHGVFKVKDTTTLQQHLVDGRDMIIIRMPKDFPPFPQKLKFREPQREERICLVTTNFQTKSMSSMVSDTSCTFPSGDGIFWKHWIQTKDGQCGSPLVSTRDGFIVGIHSASNFTNTNNYFTSVPKNFMELLTNQEAQQWVSGWRLNADSVLWGGHKVFMVKPEEPFQPVKEATQL [Q59C] | 0.0939 | 0.0821 | – | 0.0582 | 0.073 | – | – | 0.0654 | – | – | 0.106 | 0.072 | – | – | 0.0705 | – | – | –
7 | MGESLFKGPRDYNPISSSICHLTNESDGHTYSLYGIGFGPFIITNKHLFRRNNGTLVVQSLHGVFKVKDTTTLQQHLVDGRDMIIIRMPKDFPPFPQKLKFREPQREERICLVTTNFQTKSMSSMVSDTSCTFPSGDGIFWKHWIQTKDGQCGSPLVSTRDGFIVGIHSASNFTNTNNYFTSVPKNFMELLTNQEAQQWVSGWRLNADSVLWGGHKVFMVKPEEPFQPVKEATQL [T31Y] | 0.0732 | 0.0894 | 0.0641 | 0.079 | 0.0539 | – | 0.0581 | 0.0549 | – | 0.057 | 0.1 | 0.0649 | – | – | 0.0495 | 0.0799 | – | 0.0958
8 | MGESLFKGPRDYNPISSSICHLTNESDGHTTSLYGIGFGPFIITNKHLFRRNNGTLVVQSLHGVFKVKDTTTLQQHLVDGRDMIIIRMPKDFPPFPQKLKFREPQREERICLVTTNFQTKSMSSMVSDTSCTFPSGDGIFWKHWIQTKDGQCGSPLVQTRDGFIVGIHSASNFTNTNNYFTSVPKNFMELLTNQEAQQWVSGWRLNADSVLWGGHKVFMVKPEEPFQPVKEATQL [S158Q] | 0.0582 | – | 0.0567 | – | 0.0448 | – | – | 0.0258 | – | – | 0.0719 | 0.0548 | – | – | 0.0461 | – | 0.0492 | –
9 | MGESLFKGPRDYNPISSSICHLTNESDGHTTSLYGIGFGPFIITNKHLFRRNNGTLVVQSLHGVFKVKDTTTLQQHLVDGRDMIIIRMPKDFPPFPQKLKFREPQREERICLVTTNFQTKSMSSMVSDTSCTFPSGDGIFWKHWIQTKDGQCGSPLVSTRDGFIVGIHSDSNFTNTNNYFTSVPKNFMELLTNQEAQQWVSGWRLNADSVLWGGHKVFMVKPEEPFQPVKEATQL [A170D] | 0.0575 | – | 0.0397 | – | – | – | – | – | – | – | – | – | – | – | – | – | – | –
10 | MGESLFKGPRDYNPISSSICHLTNESDGHTTSLYGIGFGPFIITNKHLFRRNNGTLVVQSLHGVFKVKDTTTLQQHLVDGRDMIIIRMPKDFPPFPQKLKFREPQREERICLVTTIFQTKSMSSMVSDTSCTFPSGDGIFWKHWIQTKDGQCGSPLVSTRDGFIVGIHSASNFTNTNNYFTSVPKNFMELLTNQEAQQWVSGWRLNADSVLWGGHKVFMVKPEEPFQPVKEATQL [N116I] | 0.0758 | – | – | – | – | 0.0973 | 0.0387 | 0.0626 | – | – | – | 0.029 | – | 0.0926 | 0.0675 | – | – | –
11 | MGESLFKGPRDYNPISSSICHLTNESDGHTTSLYGIGFGPFIITNKHLFRRNNGTLVVQSLHGVFKVKDTTTLQQHLVDGRDMIIIRMPKDFPPFPQKLKFREPQREERICLVTTNFQTKSMSSMVSDTSCTFPSGDGIFWKHWIQTKDGQCGSPLVSTRDGFIVGIHSASNFTNTNNYFTSVPKNFMELLTNQEAQQWVSGWRLNADSVLWGGHKVFMVKPEEPFQPWKEATQL [V229W] | 0.08 | – | 0.0637 | 0.0612 | 0.0664 | 0.139 | – | 0.0678 | 0.0769 | 0.0669 | – | – | 0.0701 | 0.0796 | 0.0601 | 0.0762 | – | 0.0631

Reference: the supplement of paper PMC12217912
